{
  "source": "the supplement of paper PMC11417369",
  "note": "The other results are listed elsewhere or left out.",
  "data": [
    {"system": "PfAP2-HC AP2 domain (GST-tagged)", "assay": "gcPBM binding intensity (ln(normalized median fluorescence intensity)); higher = stronger DNA binding", "procedure,_shortened": "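Alexa488 anti-GST antibody, scanned at 488 nm, detected GST-tagged P. falciparum DNA-binding domains that had been expressed in E. coli and incubated for 1 h on an Agilent 4 × 180k array. The array carried primer-extended double-stranded 36-bp intergenic genomic probes and negative controls. Binding intensity is the highest Masliner-normalised natural-log median intensity across replicate spots of either orientation of each probe.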", "values": [
      {"sequence": "TAGCTTATTAATATCATACACACATAGATATATTTA [CACACA_site3105]", "gcPBM binding intensity (ln)": 9.72},
      {"sequence": "CAATTTGGGGTGTACACACACCTTATTTAAATTAAA [CACACA_site6663]", "gcPBM binding intensity (ln)": 9.79},
      {"sequence": "TTGAACTCTCTTACGCGTACGTGTTATTATGAAAAT [XGTACX_site6265]", "gcPBM binding intensity (ln)": 9.74},
      {"sequence": "ATCATGTTATATACATGTACATATATATATATATAA [XGTACX_site609]", "gcPBM binding intensity (ln)": 9.91},
      {"sequence": "ATCATCCAAGATCTTACACACATATTAAATAAATAA [CACACA_site1473]", "gcPBM binding intensity (ln)": 9.76},
      {"sequence": "TTTTATTTTTTTAAATGTACACATATTAATGTAAGG [XGTACX_site319]", "gcPBM binding intensity (ln)": 9.42},
      {"sequence": "TTACATAATTTCTGCTGTACCAATTTTGAGAAGTTG [XGTACX_site4023]", "gcPBM binding intensity (ln)": 9.53},
      {"sequence": "AAAAGGAATATAATCATTCAAAAATATAATATATAT [GTGCAC_negctrl_site551]", "gcPBM binding intensity (ln)": 9.63},
      {"sequence": "ATGTAAATATATATATGTACTAATTAGTAGTTTACG [XGTACX_site6271]", "gcPBM binding intensity (ln)": 9.96},
      {"sequence": "TTTTATAAATTATAATTCTATTATCTGTTCTTTTTA [TGCATGCA_negctrl_site487]", "gcPBM binding intensity (ln)": 9.82},
      {"sequence": "CATACATACATACATACACACATACAGATATATATA [CACACA_site4890]", "gcPBM binding intensity (ln)": 10},
      {"sequence": "TCCTTATTACTTTTTTAAGTCGTAATGAAAGAAAAA [CACACA_negctrl_site1497]", "gcPBM binding intensity (ln)": 9.15},
      {"sequence": "ATCTTAACTCTATGCACACATAAAAGTATATAAATA [CACACA_site2256]", "gcPBM binding intensity (ln)": 9.64},
      {"sequence": "AAAAAAAAAAAATACACACACATATTTATTTATATA [CACACA_site7114]", "gcPBM binding intensity (ln)": 10.1},
      {"sequence": "AAAAAAGGTAAAAAAAGTACAAAAAAAAAATTAAAA [XGTACX_site6993]", "gcPBM binding intensity (ln)": 9.44},
      {"sequence": "TATTATAATATATTTGTGCACATAATATCTCCGCTA [GTGCAC_site9799]", "gcPBM binding intensity (ln)": 9.77},
      {"sequence": "AGTAGTCTGGAGAAAAGTACATAGTATCTGATAACC [XGTACX_site2028]", "gcPBM binding intensity (ln)": 9.63},
      {"sequence": "AAAAAGATAAAATATACATGCATATATAATATACAT [TGCATGCA_site488]", "gcPBM binding intensity (ln)": 9.82},
      {"sequence": "TGCTTATATATAAATTGTACTGAAAGAATAAAATAA [XGTACX_site4025]", "gcPBM binding intensity (ln)": 9.5},
      {"sequence": "TAATAGATGTTATGAAGTACTAAATATTAAATATAA [XGTACX_site5717]", "gcPBM binding intensity (ln)": 9.67},
      {"sequence": "TTTATTTTAAATGGGTGTACTCATTCCTTATGGAAG [XGTACX_site1397]", "gcPBM binding intensity (ln)": 9.3},
      {"sequence": "AAAATAATTCATGTTGGTAATAAGACTCGAGGTGAA [CACACA_negctrl_site1054]", "gcPBM binding intensity (ln)": 9.79},
      {"sequence": "TTTGGATAAAAAATATGTACACACATATAGATATCT [XGTACX_site5660]", "gcPBM binding intensity (ln)": 9.76},
      {"sequence": "TTGACAGGAACGTTGGTGCACGTACTGTTTTTCTTT [GTGCAC_site9389]", "gcPBM binding intensity (ln)": 9.65},
      {"sequence": "GTATAATATTTTAATGCACACACACTAATAAAAAAA [CACACA_site8939]", "gcPBM binding intensity (ln)": 10.6},
      {"sequence": "AAGTATAAATAAAGGCGTACACATGTAAATTATATT [XGTACX_site126]", "gcPBM binding intensity (ln)": 10.1},
      {"sequence": "TGTTCATTTTTAAAATGTACATATATGTTGTTCCAT [XGTACX_site8444]", "gcPBM binding intensity (ln)": 9.7},
      {"sequence": "AAAACATAAATACATACACACATAATATAGATTAAT [CACACA_site6205]", "gcPBM binding intensity (ln)": 10.2},
      {"sequence": "TTAAAAATAAATTCATGTACATAATATATATATATA [XGTACX_site7908]", "gcPBM binding intensity (ln)": 9.49},
      {"sequence": "CATATGTATATGACTACACACAAGGGTGTACCTATA [CACACA_site6670]", "gcPBM binding intensity (ln)": 9.93},
      {"sequence": "TATATACAACGTTAAGCACACACAAAAAAAATTTAA [CACACA_site9013]", "gcPBM binding intensity (ln)": 10},
      {"sequence": "TTGCATTTATTATACACACACAAAAAAATATTTATA [CACACA_site6252]", "gcPBM binding intensity (ln)": 10},
      {"sequence": "ACGTATTTTTAAATATATGAATTATGTAACTTGTGA [CACACA_negctrl_site1446]", "gcPBM binding intensity (ln)": 9.48},
      {"sequence": "TATACTATTTAAATGTGTACTAAAAGAATATATTAT [XGTACX_site5238]", "gcPBM binding intensity (ln)": 9.55},
      {"sequence": "GAATATGTGATATTTTGTACATAAAAATAATATATA [XGTACX_site6398]", "gcPBM binding intensity (ln)": 9.64},
      {"sequence": "CTATATGTTAAATTCTCACACATTATTACAATTTAA [CACACA_site5979]", "gcPBM binding intensity (ln)": 9.67},
      {"sequence": "ATTATAACTAAATAAATGATATATAATATTTTATTT [XGTACX_negctrl_site234]", "gcPBM binding intensity (ln)": 9.43},
      {"sequence": "TATATATAGAAACACACACACACACCCAAGCGTAGC [CACACA_site63]", "gcPBM binding intensity (ln)": 10.6},
      {"sequence": "ATAATGTATTTATATATATATATATATTTTAATAAA [CACACA_negctrl_site460]", "gcPBM binding intensity (ln)": 9.52},
      {"sequence": "AATTATAAAAAAAAAAAAAAAAAAAAAAACTAAATG [CACACA_negctrl_site1379]", "gcPBM binding intensity (ln)": 9.36},
      {"sequence": "TAATAAATCAATAAATGTACATATATGTATAATTTC [XGTACX_site980]", "gcPBM binding intensity (ln)": 9.76},
      {"sequence": "TTTAAAAATATATTCACACAGAAATAGTAAAAGTTA [CACACA_site4587]", "gcPBM binding intensity (ln)": 9.63},
      {"sequence": "TAAATATATTTATAAGCACACACTAATAAACCAACA [CACACA_site8022]", "gcPBM binding intensity (ln)": 10.1},
      {"sequence": "TTATGCAATTTGTATTGTACATTCATGATATTAATA [XGTACX_site5070]", "gcPBM binding intensity (ln)": 9.53},
      {"sequence": "ATCTATATCTATAATACACACATAAATGGATATATA [CACACA_site6284]", "gcPBM binding intensity (ln)": 9.69},
      {"sequence": "AATGTGTACGCACGCACACACAAAAAAATATATATA [CACACA_site2913]", "gcPBM binding intensity (ln)": 10.7},
      {"sequence": "CAAGCCCTTCTGCTTACACACAGTAATTATTGTGCA [CACACA_site7399]", "gcPBM binding intensity (ln)": 9.76},
      {"sequence": "AATACCCATATCTTCACACATACATAATAAATTATA [CACACA_site5367]", "gcPBM binding intensity (ln)": 9.75},
      {"sequence": "TTTGAATATTCATATGCACACAAATTAATATACATA [CACACA_site8040]", "gcPBM binding intensity (ln)": 9.63},
      {"sequence": "TTTATTTATGTGTGGGTGCATATACGTATGATGTAT", "gcPBM binding intensity (ln)": 9.92},
      {"sequence": "TTTATTTTATTTTCATGTACAAAAGGGGAATAATAA [XGTACX_site2704]", "gcPBM binding intensity (ln)": 9.37},
      {"sequence": "GATTTATACAAATATGTACACACTAAATATATATTA [CACACA_site455]", "gcPBM binding intensity (ln)": 9.83},
      {"sequence": "TATTTATCTTTACGCACACACTTGCATGTACAAAAG [CACACA_site4753]", "gcPBM binding intensity (ln)": 10},
      {"sequence": "ATATGTATGTATTTATTATTGTGCATTGTATTTATA [CACACA_negctrl_site664]", "gcPBM binding intensity (ln)": 9.84},
      {"sequence": "ATATATTTATATATTTGTACATATAATATCTTCTTT [XGTACX_site8504]", "gcPBM binding intensity (ln)": 9.69},
      {"sequence": "GTCGTATAATTTTCAGTGCAATATTTGAATAAATGG [GTGCAC_site9404]", "gcPBM binding intensity (ln)": 9.62}
    ]}
  ]
}
